Measurements taken from PubChem BioAssay AID1508624 (National Center for Advancing Translational Sciences (NCATS), 2021).
The campaign covered roughly 48,000 compounds. About 120 (0.25%) were called active. Inconclusive results (about 4%) are left out. The call rests on the fitted dose curve; in most records, active means well fitted activation curve with a large enough effect; inconclusive means small, poorly fitted or top-dose-only effect, or another doubt; inactive means no such curve, though single readings can be large or run the other way. Some of the results follow.

assay: Primary qHTS for Identification of Small Molecule Activators of Huntingtin-Antisense Promoter Activity; settings: HEK293 HTT-AS promoter firefly luciferase reporter (activity 0% = vehicle and -100% = no light), 24 h; series mostly up to 57.5 µM; activity change, positive = activation: at the top concentration; further: nearly all actives have a fitted effect of over 55% in size
Outline: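 Quantitative HTS used concentration series of up to 57.5 uM final on HEK293 luciferase reporter cells, 24 h at 37 degrees C. Readout was Dual-Glo firefly luminescence.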
Potency means the concentration at half of the fitted maximal effect.

Row | Compound | activity change, positive = activation | Potency
1 | CCN1CCC(N(Cc2cccc(OC)c2)C(=O)Nc2ccc(C)cc2Cl)CC1 | inactive: -10.4% | 
2 | COC(=O)C1=C(C)NC(C)=C(C(=O)OCCc2ccc(N3CCN(C(c4ccccc4)c4ccccc4)CC3)cc2)C1c1cccc([N+](=O)[O-])c1 (stereo unspecified) | inactive: -3.37% | 
3 | Cc1ccc(CSc2nc(=O)c3c(n2C)NC(=O)CC3c2ccc(OC(C)C)cc2)cc1 (stereo unspecified) | inactive: -24.9% | 
4 | CCCCCNC(=O)C(=O)NCC(c1ccc2c(c1)OCO2)N1CCOCC1 (stereo unspecified) | inactive: -11.5% | 
5 | Cc1ccc(S(=O)(=O)Nc2cc3c(cc2N2CCOCC2)n(C)c(=O)n3C)c(C)c1 | inactive: -21.6% | 
6 | CCn1cc(C(=O)NCCc2ccccc2)c(=O)c2cc(S(=O)(=O)N(C)C3CCCCC3)ccc21 | inactive: -11.1% | 
7 | CN(C)C(=O)CNC(=O)Cc1ccccc1 | inactive: -19.9% | 
8 | CC(=O)c1[nH]c(C)c(C(=O)NCCc2ccc(C)cc2)c1C | inactive: -13.2% | 
9 | COc1ccc(-c2noc(-c3ccc(NCc4ccccc4OC)c([N+](=O)[O-])c3)n2)cc1 | inactive: -1.25% | 
10 | CC(=O)Nc1cccc(C(=O)NCc2ccc3c(c2)CCN3C(C)=O)c1 | inactive: -18.1% | 
11 | CN(C)CCCNc1oc(/C=C/c2ccc(F)cc2)nc1C#N | inactive: -1.14% | 
12 | Cc1ccc(NC(=O)CCCn2c(=O)c3cccn3c3cccnc32)c(Cl)c1 | inactive: -4.36% | 
13 | O=c1oc2c3c(ccc2c2ccccc12)OCN(Cc1cccc(Cl)c1)C3 | inactive: -0.288% | 
14 | CCOc1ccccc1N(C)C(=O)C1CCCN(c2ncnc3onc(-c4ccc(F)cc4)c23)C1 (stereo unspecified) | inactive: -5.36% | 
15 | Cc1c(CCNC(=O)Cc2ccccc2)sc2nc(-c3ccc(F)cc3)nn12 | inactive: 5.9% | 
16 | Cc1cc(C)c(NC(=O)CSc2nccn2Cc2ccco2)c(C)c1 |  | active: 5.01 µM
17 | O=C(CN1CCN(Cc2ccc(Cl)cc2)C1=O)NCc1ccc(F)cc1 | inactive: -25.2% | 
18 | CCN(CC)CCNC(=O)Cn1ncc2c([nH]c3ccccc32)c1=O | inactive: -8.96% | 
19 | CN1C2CCC1CC(OC(=O)C(CO)c1ccccc1)C2 (stereo unspecified) | inactive: -9.07% | 
20 | CCCCN(CC)CCCNC(=O)c1cc2c(-c3ccc(OC)c(OC)c3)nn(C)c2s1 | inactive: 15.9% | 
21 | CCOc1ccc(-c2cnc(NCc3ccc(OC)cc3OC)n2C)cc1 | inactive: -12.2% | 
22 | O=C(NCc1ccc(F)cc1)c1ccc(NC(=O)N2CC3CCCN3c3ccccc32)cc1 (stereo unspecified) | inactive: -46.5% | 
23 | COCCNC(=O)C1CCCN(S(=O)(=O)c2ccc3c(ccn3C)c2)C1 (stereo unspecified) | inactive: -7.91% | 
24 | Cn1nc(C(=O)N2CCN(c3ccccc3F)CC2)c2c1-c1ccccc1SC2 | inactive: -19.9% | 

Row | Compound | activity change, positive = activation | Potency
25 | O=C1c2oc3ccc(F)cc3c(=O)c2C(c2cccc([N+](=O)[O-])c2)N1CCCN1CCOCC1 (stereo unspecified) | inactive: -10.6% | 
26 | Cc1ccc(NC(=O)c2cccn2-c2nnc(N3CCCCC3)s2)cc1Cl | inactive: -15.7% | 
27 | Cc1ccc2nc(N(Cc3cccnc3)C(=O)C3COc4ccccc4O3)sc2c1 (stereo unspecified) | inactive: 29.7% | 
28 | Cc1ccc(CSc2cn(CC(=O)N3CCCCC3)c3ccccc23)cc1 | inactive: 6.79% | 
29 | CCc1ccc(CN(C(=O)c2cc3ccccc3oc2=O)C2CCS(=O)(=O)C2)cc1 (stereo unspecified) |  | active: 3.55 µM
30 | COc1ccc(Cl)cc1NC(=O)CCC(=O)c1ccc(C)cc1 | inactive: -21.2% | 
31 | CCCCNC(=O)CCCn1c(=O)c2ccccc2n(Cc2ccccc2C)c1=O | inactive: -14.1% | 
32 | COc1ccc(CNC(=O)COCc2cc(-c3cccs3)on2)cc1OC | inactive: -12% | 
33 | CCc1c(C)sc2c1CCN(Cc1ccc(F)cc1)C2c1ccccc1 (stereo unspecified) | inactive: -26.1% | 
34 | CCC(=O)N1CCc2cc(Br)cc(S(=O)(=O)N3CCN(c4ccccc4)CC3)c21 | inactive: -4.92% | 
35 | COc1ccc(NC(=O)c2ccco2)cc1NC(=O)COc1cc(C)cc(C)c1 | inactive: -31.5% | 
36 | COc1ccc(CNC(=O)C2CCCN(S(=O)(=O)c3ccc4c(c3)CCCN4C(C)=O)C2)cc1 (stereo unspecified) | inactive: -49.9% | 
37 | CCc1nnc2c(NCc3ccc(F)cc3)nc3ccccc3n12 | inactive: -12.5% | 
38 | CCOc1ccc2nc(N3CCCC(C(=O)Nc4ccc(Br)c(C)c4)C3)sc2c1 (stereo unspecified) | inactive: 10.2% | 
39 | COc1ccccc1N1CCN(S(=O)(=O)c2ccc(F)c(C(=O)Nc3ccc(C)c(F)c3)c2)CC1 | inactive: -24.1% | 
40 | COc1ccc2c(c1)CC(C(=O)N1CCC(C(N)=O)CC1)CO2 (stereo unspecified) | inactive: -6.99% | 
41 | COc1ccc(CCNC(=O)c2cc(Sc3cccc(Cl)c3)nc3ccccc23)cc1OC | inactive: -36.8% | 
42 | COc1ccc2c(c1)NC(c1ccc(OCC(C)C)cc1)=NC(c1ccncc1)=N2 | inactive: -3.66% | 
43 | CCOc1ccc(-c2n[nH]c3c2C(c2ccccc2OC)N(c2ccc(Br)cc2)C3=O)cc1 (stereo unspecified) | inactive: -13% | 
44 | COc1ccccc1N1CCN(C(=O)c2oc3ccccc3c2NC(=O)C(C)Oc2ccccc2)CC1 (stereo unspecified) | inactive: -1.43% | 
45 | O=C(Nc1cc(Cl)cc(Cl)c1)c1ccc(F)c(S(=O)(=O)N2CCCCCC2)c1 | inactive: -13.1% | 
46 | Cc1ccc(C(C)C)c(OCCn2cc(C(=O)c3ccco3)c3ccccc32)c1 | inactive: -34% | 
47 | CCOc1ccc(CNC(=O)c2cc3c(=O)n(C)c4ccccc4c3s2)cc1 | inactive: -8.88% | 
48 | O=C(c1ccc2c(c1)OCCO2)N(Cc1cccnc1)c1nc2ccc(F)cc2s1 | inactive: -38.2% | 

Row | Compound | activity change, positive = activation | Potency
49 | Cc1ccc(NC(=O)Cn2c(=O)n(Cc3ccco3)c(=O)c3ccccc32)cc1 | inactive: -22.7% | 
50 | Cc1ccc(NC(=O)C2CCCN2S(=O)(=O)c2cccc3cccnc23)cc1 (stereo unspecified) | inactive: -15.2% | 
51 | COc1ccc(-c2ccnc3c(-c4ccc(F)cc4)c(C)nn23)cc1OC | inactive: -12.1% | 
52 | CC1CN(C(=O)N2CCC(C(=O)NC3CCCCCC3)CC2)c2cc(Cl)ccc2O1 (stereo unspecified) | inactive: -4.41% | 
53 | Cc1cc(C)n2nc(CNS(=O)(=O)c3ccc(Cl)cc3)nc2n1 | inactive: -9.84% | 
54 | O=C(Cn1cc(SCc2cccc(Cl)c2)c2ccccc21)N1CCOCC1 | inactive: 31.5% | 
55 | O=c1[nH]c(SCc2ccc(F)cc2)nc2c1CCCC2 | inactive: -0.696% | 
56 | COc1cc(C(=O)NC2CC(=O)N(c3cccc(F)c3)C2)cc(OC)c1OC (stereo unspecified) | inactive: 3.01% | 
57 | CC(C)c1ccc(OCc2cc(=O)n3c4c(sc3n2)CCCC4)cc1 | inactive: -15.5% | 
58 | CCc1ccc(Nc2cc(C)nc3nc(Cc4ccc(Cl)cc4)nn23)cc1 | inactive: -44.4% | 
59 | CCOC(=O)c1ccc(CSc2nnc3cc(C)c4ccccc4n23)cc1 | inactive: -19.8% | 
60 | COc1ccccc1NC(=O)CN(c1ccc(C(C)C)cc1)S(=O)(=O)c1c(C)noc1C | inactive: -26.7% | 
61 | O=C(NC1CCCCC1)c1ccc2c(c1)sc1nc(-c3ccccc3)cn12 | inactive: -14.4% | 
62 | N#Cc1ccc(C(=O)N2CCN(c3nc4ccc(F)cc4s3)CC2)cc1 | inactive: -23.7% | 
63 | COc1ccc(-c2oc3ncn4nc(-c5ccc(Cl)cc5)nc4c3c2-c2ccc(OC)cc2)cc1 | inactive: -9.43% | 
64 | COc1cc2c(=O)n(Cc3ccccc3)c(=O)n(CC(=O)Nc3cc(C(F)(F)F)ccc3Cl)c2cc1OC | inactive: -6.53% | 
65 | CN1C(C(=O)Nc2ccc(OC(F)(F)F)cc2)=CC(c2ccc3c(c2)OCO3)=NS1(=O)=O | inactive: -27.1% | 
66 | O=C(Cn1cccc1C(=O)c1ccccc1)NCc1ccc(F)cc1 | inactive: 13% | 
67 | CCN(CC)c1ccc(NS(=O)(=O)c2ccc3c(c2)CCCN3C(C)=O)c(C)c1 | inactive: -24.8% | 
68 | COC(=O)c1cc2oc(C)cc2n1Cc1c(C)cc(C)cc1C | inactive: 7.29% | 
69 | COc1ccc(C2c3c(n(C)c4ccccc34)C(=O)N2CC(=O)Nc2ccc(Cl)cc2)cc1 (stereo unspecified) | inactive: -29.3% | 
70 | CCc1ccc(N2CCn3c2nc2c3c(=O)n(Cc3cccc(C)c3)c(=O)n2C)cc1 | inactive: -6.33% | 
71 | CCOC(=O)c1c(C)oc2ncnc(NCCc3ccccc3)c12 | inactive: -14.2% | 
72 | COc1cc2nc(SCC(=O)Nc3ccc(F)cc3)n3nc(CCn4c(C)nc5ccccc54)nc3c2cc1OC | inactive: 5.73% | 

Row | Compound | activity change, positive = activation | Potency
73 | Cc1ccc(OC(=O)c2snnc2C)cc1C | inactive: -4.38% | 
74 | Cc1ccc(NC(=O)C(=O)NCC(c2ccc3c(c2)OCO3)N2CCOCC2)c(C)c1 (stereo unspecified) | inactive: -5.81% | 
75 | O=C(CSc1ncc2c(n1)-c1ccccc1N(Cc1ccc(F)cc1)S2(=O)=O)c1ccc(Br)cc1 | inactive: -17.4% | 
76 | CCCN1CCN(CCNC(=O)Nc2cc(OC)cc(OC)c2)CC1 | inactive: 2.91% | 
77 | CCCCNC(=O)c1ccc2c(c1)ncn2-c1cc(OC)ccc1OC | inactive: -3.16% | 
78 | Cc1c(Cl)cccc1-n1ncc(C(=O)Nc2ccc(Br)cc2F)c1C1CCNCC1 | inactive: -7.89% | 
79 | O=C(Nc1ccccc1F)c1ccc2c(Cl)c3c(nc2c1)CCC3 | inactive: -68.5% | 
80 | CCOc1ccccc1CNCc1cccn1-c1nnc(N2CCN(c3ccccc3)CC2)s1 | inactive: -46.3% | 
81 | COC(=O)c1ccc(NC(=O)CCn2cnnn2)cc1 | inactive: -5.03% | 
82 | CCN(CCCNC(=O)c1nn(-c2ccc(OC)cc2)c(=O)c2c1c1ccccc1n2C)c1ccccc1 | inactive: -2.82% | 
83 | CCc1cccc(NC(=O)CCNS(=O)(=O)c2cccc3nonc23)c1 | inactive: -27.1% | 
84 | COc1ccccc1NC(=O)C1=C(C)Nc2nnnn2C1c1ccc(C(F)(F)F)cc1 (stereo unspecified) | inactive: -19.2% | 
85 | CN[C@@H](C)C(=O)N[C@H]1CCCC[C@H]2CC[C@@H](C(=O)N[C@@H](c3ccccc3)c3cn(CCCCc4ccc(CCCCn5cc([C@@H](NC(=O)[C@@H]6CC[C@@H]7CCCC[C@H](NC(=O)[C@H](C)NC)C(=O)N76)c6ccccc6)nn5)cc4)nn3)N2C1=O | inactive: -2.19% | 
86 | COC(=O)c1ccc(NC(=O)c2nc(-c3ccc(Cl)cc3)n3c2CCCCC3)cc1 | inactive: -39.8% | 
87 | O=C(Cn1nc(C(F)(F)F)c2c1CCCC2)Nc1ccc(Br)cc1 | inactive: -46.1% | 
88 | CCCCOC(=O)CC(CC(=O)OCCCC)(OC(C)=O)C(=O)OCCCC | inactive: -4.25% | 
89 | Cc1ccc(-n2nnnc2CNC(=O)c2cc(C(F)(F)F)cc(C(F)(F)F)c2)cc1C | inactive: -44.5% | 
90 | COc1cccc(CNC(=O)COc2cc(=O)n(C)c3ccccc23)c1 | inactive: -7.91% | 
91 | COc1ccc(S(=O)(=O)Nc2ccc(-c3cn4c(C)csc4n3)cc2)cc1 | inactive: -14.2% | 
92 | Cc1ccc(N2CCN(S(=O)(=O)c3cccc4ccccc34)CC2)cc1Cl | inactive: -8.29% | 
93 | COc1ccccc1S(=O)(=O)Cc1ccc(C(=O)NCc2ccc(Cl)cc2)o1 | inactive: -27.8% | 
94 | O=C(Nc1cccc(C(F)(F)F)c1)c1cc(CN2CCOCC2)on1 | inactive: -13.2% | 
95 | CCc1ccc(NC(=O)[C@H](Cc2ccccc2)N2Cc3ccccc3C2=O)cc1 | inactive: -10.3% | 
96 | CCOc1ccc(S(=O)(=O)c2c(C(=O)c3ccc(CC)cc3)cnc3ccc(C)cc23)cc1 | inactive: -15.4% | 
